Results from publication PMC7819943, “Rice protein-binding microarrays: a tool to detect cis-acting elements near promoter regions in rice”.
The list shows a part of the results.

biological target: T1, OsWOX13 (Oryza sativa, UniProt Q5QMM3 1-267); assay: protein-binding microarray (RPBM); PBS, 2% BSA, 51.3 ng/ul salmon testes DNA, 50 uM zinc acetate, 200 nM TF, 25 C, 1 h; high values mean tight binding; conditions: protein: recombinant; tags: N-terminal polyhistidine and DsRed monomer fusion (pET32a); label: CyDye5-dUTP incorporated in the synthesized complementary strand; 3' TTTTT single-stranded linker to array surface; dsDNA, one strand shown
T1 sequence: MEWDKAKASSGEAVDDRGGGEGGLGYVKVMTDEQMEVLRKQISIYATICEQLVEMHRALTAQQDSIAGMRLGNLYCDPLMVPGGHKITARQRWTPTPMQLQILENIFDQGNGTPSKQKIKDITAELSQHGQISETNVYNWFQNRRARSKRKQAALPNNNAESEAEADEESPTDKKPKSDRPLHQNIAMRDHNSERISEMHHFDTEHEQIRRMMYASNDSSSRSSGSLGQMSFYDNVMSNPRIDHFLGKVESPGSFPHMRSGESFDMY
Procedure, shortened: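 Binding signal is reported as fluorescence intensity per feature (arbitrary units) from an Axon 4000B scanner. Incubation used 200 nM of each Ni–NTA-purified, N-terminally polyhistidine- and DsRed-fused transcription factor from E. coli BL21-CodonPlus on a double-stranded custom Agilent array for 1 h at 25 °C, with 50 µM zinc acetate in the buffer, followed by washing.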

Sequence	binding signal
ATAAGTGCAAATCAACTTAAACAAATGAGGCATCAGAGCACGGAGTCACCTAGTGCAG	3420 fluorescence intensity (a.u.)
AAATCTCATCACAATTTACAATTAGTTAACCACTATACTGCGGAGTCACCTAGTGCAG	6310 fluorescence intensity (a.u.)
AGCAAAATAAATTGCACTCAGTTGTTTGTGGTAGCGCTCTCGGAGTCACCTAGTGCAG	6860 fluorescence intensity (a.u.)
AACTAATTACATAGTTTGCATGAAAATCGCGAGACAAATCCGGAGTCACCTAGTGCAG	13700 fluorescence intensity (a.u.)
GTATAACTAATTAAACATGACTGCCAGCTGAAACATTATCCGGAGTCACCTAGTGCAG	19600 fluorescence intensity (a.u.)
TACATATAGATAGACTGATTGATTGCTTGGCACTGTTAGCCGGAGTCACCTAGTGCAG	39400 fluorescence intensity (a.u.)
ATATATAACTTTGACAATTACTATTATATACATGCTCCTTCGGAGTCACCTAGTGCAG	4800 fluorescence intensity (a.u.)
TGGGACTGATGGAATAATAATTTTAAATGAAAGTCAACATCGGAGTCACCTAGTGCAG	21300 fluorescence intensity (a.u.)
CATAATTATCCCATATTCTTATATCTCTATTCTATGCATTCGGAGTCACCTAGTGCAG	33200 fluorescence intensity (a.u.)
AAGGATTAGATATGATTCAATCTTTTGGTTCAAAGTTCTTCGGAGTCACCTAGTGCAG	6590 fluorescence intensity (a.u.)
CCACAATTTAGATAAATATCAATACAATTTATCTATTCGTCGGAGTCACCTAGTGCAG	4110 fluorescence intensity (a.u.)
TAATCAATTAAGAAATTAATTAATCCTTTGCTCCCTGATTCGGAGTCACCTAGTGCAG	54400 fluorescence intensity (a.u.)
TTAGATACTGGACATGATTGATAAATTGCTGCTCTGCACGCGGAGTCACCTAGTGCAG	49500 fluorescence intensity (a.u.)
TGATTAATTAACCGAAAAGTGTGTAAAGCAAATGTTTTGGCGGAGTCACCTAGTGCAG	15200 fluorescence intensity (a.u.)
GACTAAATTTGTCCGACTTTAGAACAACCTTAACGCCGTGCGGAGTCACCTAGTGCAG	6420 fluorescence intensity (a.u.)
TGGGCCAAATTGATTTATGGTCTGAATTCACTGATGGAAACGGAGTCACCTAGTGCAG	24900 fluorescence intensity (a.u.)
AGCTTATAGATTATAATAATCTACTTGTTTGTTCCAGTTTCGGAGTCACCTAGTGCAG	11500 fluorescence intensity (a.u.)
CATTCTTGCAATTCAACTATTGATTGTTTGATCTTATGGACGGAGTCACCTAGTGCAG	11900 fluorescence intensity (a.u.)
GATTAATGATAAATATGTGTTTAAAGTTAACGGTGTAATACGGAGTCACCTAGTGCAG	7190 fluorescence intensity (a.u.)
ACACTGATTAATGCATATGCTAGATTGGGGATGATGGATACGGAGTCACCTAGTGCAG	36000 fluorescence intensity (a.u.)
GGTGAATTTGACAATGTGATGGCAGGAAATGACATGCCGTCGGAGTCACCTAGTGCAG	7860 fluorescence intensity (a.u.)

Sequence	binding signal
CGAAAGTCTCAGTGCAATCAAATTTGTGCAATCATAAATGCGGAGTCACCTAGTGCAG	3440 fluorescence intensity (a.u.)
TATCCCAAATTATGATGATCTCGTTTGGTATAATTATGCTCGGAGTCACCTAGTGCAG	6200 fluorescence intensity (a.u.)
GGCTAACTGGATGACGATGATATATTATTATTATGGAAGCCGGAGTCACCTAGTGCAG	25600 fluorescence intensity (a.u.)
GGAATCAAATTAAAATTTCAGGGGTATAGAAGGGATCGGGCGGAGTCACCTAGTGCAG	3790 fluorescence intensity (a.u.)
TAAATTATTTAATTAGTAACTGGACTAAAATATATATTTCCGGAGTCACCTAGTGCAG	3380 fluorescence intensity (a.u.)
ACTAACTTGACCAATCAAGCGTATAAATAGTAACTACTACCGGAGTCACCTAGTGCAG	31000 fluorescence intensity (a.u.)
TGAGGTAAATTTCTCAATCCTTTTGAAACGCAAAATAACACGGAGTCACCTAGTGCAG	3350 fluorescence intensity (a.u.)
GAGGTAATTAGTAAGAAACTAATAATTGTAGTAATCCAAGCGGAGTCACCTAGTGCAG	25400 fluorescence intensity (a.u.)
TTTCCATCCAATCACAACCCTCCACCATTAACTTTTCCCACGGAGTCACCTAGTGCAG	6250 fluorescence intensity (a.u.)
AGGATTGAATATTCCTGTAATTTCCCTTTACAAATCCTCTCGGAGTCACCTAGTGCAG	9300 fluorescence intensity (a.u.)
AGTTGATTATATGTGATTTAGAGCTAGTAGCTTGCTGTACCGGAGTCACCTAGTGCAG	51500 fluorescence intensity (a.u.)
AACGTTGATTTGTTGATAGAGTATGGTTATTGATGCCCCTCGGAGTCACCTAGTGCAG	47500 fluorescence intensity (a.u.)
CACTTAATCAATAATCATTAGTTCAGTACTGAAAGTCTGACGGAGTCACCTAGTGCAG	15900 fluorescence intensity (a.u.)
CTCGTTTTCAAATTAATAGATGTGGTTGACTAAGTAGAAACGGAGTCACCTAGTGCAG	5680 fluorescence intensity (a.u.)
AAAATTGAGGGATTCATACCAGCTTCGCTTGCTAATGCGTCGGAGTCACCTAGTGCAG	3660 fluorescence intensity (a.u.)
CATCTTAATTTAATTATGTATATTATACATGAAATTAGATCGGAGTCACCTAGTGCAG	16900 fluorescence intensity (a.u.)
ACCCTTTAATCTATCACTGATAAAACATGCCTTTTAGAATCGGAGTCACCTAGTGCAG	5830 fluorescence intensity (a.u.)
TACTATCGGTAATTGTTGATATCTATAAAATTAGTTGATCCGGAGTCACCTAGTGCAG	5660 fluorescence intensity (a.u.)
ATTAAAATTTTAATTAATTGATAAAAGTTAATAATGGCCGCGGAGTCACCTAGTGCAG	34300 fluorescence intensity (a.u.)
CCTACCATCTAGTATGATGATTAATTATGAACAGAGTGAGCGGAGTCACCTAGTGCAG	6980 fluorescence intensity (a.u.)
TGTAAACTAATAGCAAAATAAATTATAAATTCTACCTGTACGGAGTCACCTAGTGCAG	10700 fluorescence intensity (a.u.)
